Measured values as given in patent publication US11753479B2, “Nucleic acids encoding anti-OX40L antibodies” (Kymab Limited, priority 2014, dated 2023).

Experiments:
recombinant hOX40L = target: T1, recombinant hOX40L (Homo sapiens, UniProt P23510); experiment: Surface Plasmon Resonance apparent affinity, human OX40L; assay type: binding; conditions: SPR, OX40L at single concentration of 256 nM, 25° C.; CNROR = Cannot resolve off-rate
T1 construct: cDNA encoding the extracellular domain of human OX40L was cloned into a pREP4 expression plasmid; isoleucine zipper (trimerisation motif) (N); made in house; host or cells: FreeStyle CHO-S, transient expression
Procedure: (§1) SPR analysis was carried out using the ProteOn™ XPR36 Array System (BioRad). Anti-mouse IgG (GE Healthcare BR-1008-38) was immobilised on a GLM biosensor surface using amine coupling, the surface was then blocked using 1 M ethanolamine. Test antibodies were captured on this surface and recombinant hOX40L (human and rhesus) were used at a single concentration of 256 nM, binding sensorgrams were double referenced using a buffer injection (i.e. 0 nM) to remove baseline drift and injection artefacts. Apparent affinities for the OX40L-antibody interaction were determined using the 1:1 model inherent to the ProteOn XPR36 analysis software. The assay was run using HBS-EP (Teknova) as running buffer and carried out at 25° C.

[1] = tested on: CD3 primed primary human T lymphocytes; experiment: Effect of anti-OX40L antibodies on CD3 primed primary human T lymphocytes; assay type: cell-based; conditions: IgG4PE format, 10 μg/mL, 5 days, four independent donors; over human IgG4PE isotype control
Procedure: In order to determine whether anti-OX40L had the ability to induce T-cell responses in the absence of OX40L, the assay below was performed using method adapted from Wang et al., Hybridoma (Larchmt)., 2009 August; 28(4):269-76, in which an agonist anti-OX40L antibody was described.
A mouse anti-human CD3 antibody (Becton Dickinson) was diluted to 0.5 μg/mL in sterile PBS and 50 μL/well added to a 96 well high binding sterile plate and incubated overnight at 4° C.
Following overnight incubation, the plate was washed three times with 100 μL of sterile PBS.
T-cells (CD3 positive) were isolated from PBMC derived from leukoreduction system chambers (NHSBT) as described in Example 3. Following isolation, the cells were added to wells in 100 μL to achieve a final concentration of 1×10^5 cells/well.
Test antibodies were diluted in RPMI+10% FBS and 50 μL or 100 μL/well added to cell plate to achieve a final assay concentration of 10 μg/mL. In some cases, a mouse anti-human CD28 antibody (Becton Dickinson) was also added to wells at a final concentration of 1 μg/ml
The assay was incubated for 5 days. After 5 days, harvest supernatants and IFN-γ levels in supernatant were determined as described in Example 5.

Rhesus monkey OX40L = experiment: Surface Plasmon Resonance apparent affinity, rhesus OX40L; assay type: binding, Rhesus (Macaca mulatta); conditions: SPR, OX40L at single concentration of 256 nM, 25° C.; CNROR = Cannot resolve off-rate
Procedure: as §1

[2] = tested on: IFN-γ release in PBMC/PBMC MLR; experiment: Allogenic PBMC/PBMC Mixed Lymphocyte Reaction; assay type: cell-based, human; conditions: compared to the isotype control, one valid experiment
Procedure: PBMCs are isolated from leukoreduction system chambers (NHSBT) using Ficoll-Paque® plus (GE Healthcare) density gradient centrifugation. PBMC are pre-incubated with mitomycin C (Sigma) at 10 μg/mL in PBS for one hour at 37° C. Cells are then washed 3 times in PBS centrifuging at 300×g for 3 minutes, aspirating the supernatant after each wash. Allogeneic PBMC (not treated with mitomycin C) are added to a 96-well plate in RPMI supplemented with 10% v/v FBS at a concentration of 2×10^6/ml, 50 μL/well. Anti-OX40L antibodies are diluted in culture media and added to 96 well plate containing PBMC (not mitomycin C treated) at 50 μL/well. Mitomycin C treated PBMC are then added to allogeneic PBMC (not treated with mitomycin C) in 96-well plate at a final cell ratio in range of 1:1 to 4:1 mitomycin C treated to non mitomycin C based on number of cells/well. […] After five days TNF-α, IFN-γ, and IL-2 are measured by Duoset® ELISA (R&D Systems) according to manufacturer's recommendations. Proliferation is measured by CFSE dilution according to manufacturer's recommendations.
PBMCs were isolated from leukoreduction system chambers (NHSBT) using Ficoll-Paque® plus (GE Healthcare) density gradient centrifugation. […] After five days, IFN-γ was measured by Duoset® ELISA (R&D Systems) according to manufacturer's recommendations. […]
Based on values from IFN-γ or IL2 release (pg/mL) determined as described […]

[3] = tested on: Rhesus Macaque model of haploidentical hematopoietic stem cell transplantation (HSCT); experiment: Rhesus Macaque Graft Versus Host Disease (GvHD) model
[4] = one line per animal, 2D10 IgG4PE 10 mg/kg, brackets = experimental failure

T1 sequence (P23510 with tags, fused parts or gaps): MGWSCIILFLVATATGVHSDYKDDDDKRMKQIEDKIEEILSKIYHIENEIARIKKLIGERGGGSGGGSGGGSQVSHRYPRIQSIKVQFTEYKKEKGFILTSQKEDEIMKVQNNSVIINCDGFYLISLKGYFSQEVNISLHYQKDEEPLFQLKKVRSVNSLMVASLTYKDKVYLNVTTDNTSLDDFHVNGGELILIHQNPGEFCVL

B1: 10A07 (human): fully human anti-human OX40L antibody, IgG4-PE, kappa; VH SEQ ID No:2, VL SEQ ID No:16; heavy chain SEQ ID No:30, light chain SEQ ID No:32 (antibody, listed as Homo Sapiens)
heavy: EVQLVESGGVLVQPGGSLRLSCAASGFTFSSYIMTWVRQAPGKGLEWVSGISGSGGGTYYADSMKGRFTISRDNSKNTLYLQMNSLRVEDTAVYYCAKDRLGPITLVRGGYYYGMDVWGQGTTVTVSSASTKGPSVFPLAPCSRSTSESTAALGCLVKDYFPEPVTVSWNSGALTSGVHTFPAVLQSSGLYSLSSVVTVPSSSLGTKTYTCNVDHKPSNTKVDKRV[human IgG4 Fc with changes not spelt out]
light: DIQMTQSPSSLSASVGDRVTITCRASQSISDYLNWYQQKPGKAPKFLIYAASSLQSGVPSRFSGSGSGTDFTLTVSSLQPEDFATYYCQQSYSTPRTFGQGTRVEIKRTVAAPSVFIFPPSDEQLKSGTASVVCLLNNFYPREAKVQWKVDNALQSGNSQESVTEQDSKDSTYSLSSTLTLSKADYEKHKVYACEVTHQGLSSPVTKSFNRGEC
Apparent Affinity hOX40L (nM) (recombinant hOX40L): CNROR | IFN-γ release (T-cell response in the absence of OX40L) [1]: no effect | Apparent Affinity RhsOX40L (nM) (Rhesus monkey OX40L): CNROR | IFN-γ release [2]: inhibited IFN-γ release

B2: 2D10 (human): fully human anti-human OX40L antibody, IgG4-PE, kappa; heavy chain SEQ ID No:62, light chain SEQ ID No:64 (antibody, listed as Homo Sapiens)
heavy: EVQLVESGGGLVQPGGSLRLSCAASGFTFSNYAMNWVRQAPGKGLEWVSTISGSGGATRYADSVKGRFTISRDNSRNTVYLQMNSLRVEDTAVFYCTKDRLIMATVRGPYYYGMDVWGQGTTVTVSSASTKGPSVFPLAPCSRSTSESTAALGCLVKDYFPEPVTVSWNSGALTSGVHTFPAVLQSSGLYSLSSVVTVPSSSLGTKTYTCNVDHKPSNTKVDKRV[human IgG4 Fc with changes not spelt out]
light: DIQMTQSPSSLSASVGDRVTITCRASQSISSYLNWYQQKPGKAPNLLIYAASSLQSGVPSRFSGSGSETDFTLTISSLQPEDFATYYCQQSHSVSFTFGPGTKVDIKRTVAAPSVFIFPPSDEQLKSGTASVVCLLNNFYPREAKVQWKVDNALQSGNSQESVTEQDSKDSTYSLSSTLTLSKADYEKHKVYACEVTHQGLSSPVTKSFNRGEC
IFN-γ release (T-cell response in the absence of OX40L) [1]: no effect | serious adverse dosing side effects ([3]; 10 mg/kg, weekly from Day −2, Rhesus HSCT recipients): No serious adverse dosing side effects | Gross necropsy: visceral GvHD ([3]; animal #4): no overt visceral GvHD | Survival to Day ([3]; one line per animal (#1, #2, #4, #5, #6), 3-4 doses of 2D10 IgG4PE, #1 recorded as Technical Failure): Survival to Day 16. Received 3 doses of 2D10 IgG4PE. Peak peripheral blood donor; also recorded: Survival to Day 26. Received 4 doses of 2D10 IgG4PE. Clear hematopoietic; also recorded: Survival to Day 22. Received 4 doses of 2D10 IgG4PE. Clear hematopoietic; also recorded: Survival to Day 16. Received 3 doses of 2D10 IgG4PE. Clear hematopoietic; also recorded: Survival to day 24. Received 4 doses of 2D10 IgG4PE. Biphasic hematopoietic Day | Survival Duration [3, 4]: 22 days and 16 days (2×) and 26 days | Survival Duration (days) [3, 4]: (24) days | Whole Blood Chimerism (%) Day 0 ([3]; one line per animal, Day 0 post-transplant): 0% | Whole Blood Chimerism (%) Day 1 ([3]; one line per animal, Day 1, listed as 2D10 IgG4PE): 16.6% and 5.7% and 22.9% | Whole Blood Chimerism (%) Day 4 ([3]; one line per animal, Day 4): 6.6% | Whole Blood Chimerism (%) Day 5 ([3]; one line per animal, Day 5, listed as 2D10 IgG4PE): 91.4% and 66.3% and 31.7% and 68.2% | Whole Blood Chimerism (%) Day 7 ([3]; one line per animal, Day 7): 27.5% | Whole Blood Chimerism (%) Day 8 ([3]; one line per animal, Day 8, listed as 2D10 IgG4PE): 98.4% and 97.4% and 66.3% and 82.9% | Whole Blood Chimerism (%) Day 11 ([3]; one line per animal, Day 11): 90.4% | Whole Blood Chimerism (%) Day 12 ([3]; one line per animal, Day 12, listed as 2D10 IgG4PE): 98.6% and 99.5% and 82.3% and 92.1% | Whole Blood Chimerism (%) Day 14 ([3]; one line per animal, Day 14): 81.8% | Whole Blood Chimerism (%) Day 15 ([3]; one line per animal, Day 15, listed as 2D10 IgG4PE): 99.1% and 99.4% and 88.2% and 97.5% | Whole Blood Chimerism (%) Day 16 ([3]; one line per animal, Day 16): 79.8% | Whole Blood Chimerism (%) Day 18 ([3]; one line per animal, Day 18): 19.7% | Whole Blood Chimerism (%) Day 20 ([3]; one line per animal, Day 20, listed as 2D10 IgG4PE): 99.2% and 98.4% | Whole Blood Chimerism (%) Day 21 ([3]; one line per animal, Day 21): 0% | Whole Blood Chimerism (%) Day 23 ([3]; one line per animal, Day 23, listed as 2D10 IgG4PE): 98.6% and 98.8% | Whole Blood Chimerism (%) Day 26 ([3]; one line per animal, Day 26): 98.7% | peak peripheral blood donor chimerism ([3]; one line per animal, day of peak as printed (#2 Day 15, #4 Day 23, #5 Day 12, #6 Day 12), listed as 2D10 IgG4PE): 88% and 99% (2×) and 100% | evidence of CMV or rhLCV infection ([3]; one line per animal, listed as 2D10 IgG4PE): No evidence of CMV or rhLCV infection and No (3×) and followed by autologous repopulation concurrent with evidence of CMV and rhLCV

Where “and” joins values, the source holds several entries; their conditions need not be identical. Equal entries are not always repeated. Entries after “also recorded” stand apart in the source; their conditions may differ.
